Results on 86 sequences are retold here after the supplement of paper PMC3334620.

In all, about 33,000 sequences were measured (“E-score (-0.5 to 0.5)”: median about -0.054, highest 2% from about 0.39 on). This is one part of the list.

The test deals with Ylr278c (UniProt Q05854). Kind of test: PBM E-score (8-mer binding enrichment) (E-score (-0.5 to 0.5)); higher = stronger / more preferred TF binding; most listed sequences are background and not binding sites. The conditions noted are these: protein concentration: 200 nM; construct: GST-DNA-binding domain. As to the method:
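Universal 'all 10-mer' protein binding microarrays (Agilent AMADID 015681) probed with GST-tagged S. cerevisiae TFs (full-length or DBD) made by in vitro transcription/translation (PURExpress), about 100-200 nM. Bound TF was detected with fluorescent anti-GST. Each ungapped 8-mer (which stands for itself and its reverse complement) is scored by the PBM enrichment score (E-score), a modified Wilcoxon-Mann-Whitney statistic from -0.5 to +0.5, computed with the Universal PBM Analysis Suite. Scale: above 0.35 generally sequence-specific binding.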
Consider GAAAATCC, for which the “PBM E-score” value was determined as 0.326.

For ACGAGATA, the “PBM E-score” value is -0.132.

As to CCTATTCA, the “PBM E-score” value was determined as 0.0466.

Consider AACTCCCC, for which the “PBM E-score” value worked out at 0.266.

For the sequence TCTACTCA, the “PBM E-score” value is -0.164.

For the sequence CCGTAATC, the “PBM E-score” value was found to be 0.153.

For the sequence CACTTGGC, the “PBM E-score” value was -0.064.

On to CCGTCGTA, for which the “PBM E-score” value amounted to 0.0447.

Turning to CCTTAGAG, the “PBM E-score” value is -0.172.

Take AGGCGATG: the “PBM E-score” value is -0.0109.

As for CGAACTCG, the “PBM E-score” value came out at 0.0307.

CCTCAGCA: the “PBM E-score” value is -0.143.

With GAGAGGAC, the “PBM E-score” value was -0.0828.

Consider TTATAAAA, for which the “PBM E-score” value stood at 0.131.

Take GAACTGTC: the “PBM E-score” value is -0.00797.

With ACTCGCAG, the “PBM E-score” value is -0.155.

CTTTAGAC: the “PBM E-score” value was -0.335.

In the case of GTCTATTA, the “PBM E-score” value was -0.113.

Regarding CGTGGTTC, the “PBM E-score” value is -0.00082.

Turning to CACCCGTG, the “PBM E-score” value was -0.0716.

As for AATTCCCC, the “PBM E-score” value came to 0.226.

Take TCCTGTCA: the “PBM E-score” value was -0.161.

For the sequence CTAGGAAG, the “PBM E-score” value is -0.176.

ACTGCCCC: the “PBM E-score” value is -0.159.

In the case of AAGTTCGC, the “PBM E-score” value is -0.0704.

Take TCAGTAGA: the “PBM E-score” value is -0.17.

Take AAGTACAT: the “PBM E-score” value is -0.0215.

In the case of GGAATGAA, the “PBM E-score” value came out at 0.254.

Regarding CAGAATAA, the “PBM E-score” value is -0.174.

Turning to AGGCCTAG, the “PBM E-score” value was -0.243.

AGTTCAAA: the “PBM E-score” value worked out at 0.0609.

Consider AACCCTAT, for which the “PBM E-score” value was -0.194.

For GCATTATA, the “PBM E-score” value is -0.107.

In the case of ATAAATAG, the “PBM E-score” value was -0.0187.

Consider CTGCAGAC, for which the “PBM E-score” value was -0.108.

GCTCAATA: the “PBM E-score” value was -0.0615.

As for CCAGATAC, the “PBM E-score” value is -0.0444.

Regarding GGTGCGAC, the “PBM E-score” value turned out to be 0.0456.

Take CAATCTAC: the “PBM E-score” value is -0.167.

GCTCGGCA: the “PBM E-score” value came to 0.144.

As to CTGAGTAC, the “PBM E-score” value is -0.106.

Take CCGGCATA: the “PBM E-score” value was found to be 0.377.

As to CGTCTAAA, the “PBM E-score” value is -0.00647.

As for GATCGAAA, the “PBM E-score” value is 0.0645.

In the case of GAAGATTC, the “PBM E-score” value came to 0.0288.

Take AAGAGTTC: the “PBM E-score” value is -0.218.

Take GAAAGTTC: the “PBM E-score” value is -0.00542.

Take ATAAGGTA: the “PBM E-score” value turned out to be 0.0618.

In the case of TCCTTCGA, the “PBM E-score” value is 0.037.

With CCGCCTAA, the “PBM E-score” value is 0.0559.

Regarding GCTGCCGA, the “PBM E-score” value was determined as 0.172.

For GTACTCTA, the “PBM E-score” value is -0.322.

In the case of ACAACGCT, the “PBM E-score” value was -0.131.

In the case of AGTAGGTA, the “PBM E-score” value was -0.124.

For the sequence CTTTCGCC, the “PBM E-score” value amounted to 0.127.

Consider GAACACTC, for which the “PBM E-score” value is 0.251.

For the sequence CGGTAGAC, the “PBM E-score” value is 0.141.

AATTGCGA: the “PBM E-score” value worked out at 0.0801.

Regarding AACGTCCT, the “PBM E-score” value is -0.129.

For the sequence AGACAAGA, the “PBM E-score” value was 0.0543.

TAACACAA: the “PBM E-score” value is -0.0509.

As to AGCTTGGA, the “PBM E-score” value was -0.178.

Turning to ACAGGTCC, the “PBM E-score” value came out at 0.0268.

AATATCAA: the “PBM E-score” value was -0.0465.

For the sequence AGATCTTC, the “PBM E-score” value was 0.0583.

For the sequence GATAGAAC, the “PBM E-score” value came out at 0.0699.

For ATTGCTGA, the “PBM E-score” value is -0.24.

On to ATCCGGAC, for which the “PBM E-score” value is 0.424.

Regarding CTGTAATA, the “PBM E-score” value is -0.00741.

On to ATAAAAAT, for which the “PBM E-score” value is -0.0243.

Consider CCCGGGGA, for which the “PBM E-score” value was 0.358.

As for CTCGAGCC, the “PBM E-score” value was -0.131.

For the sequence AAGAACGC, the “PBM E-score” value stood at 0.0558.

For ATTGGTTG, the “PBM E-score” value was -0.207.

As for GAATGTAC, the “PBM E-score” value turned out to be 0.0625.

For CCCCATTA, the “PBM E-score” value was -0.424.

Regarding ATTTACAC, the “PBM E-score” value is -0.0791.

Take CCGGCCAG: the “PBM E-score” value worked out at 0.309.

In the case of ATACTAGC, the “PBM E-score” value was 0.0076.

As to GATGACTA, the “PBM E-score” value was -0.221.

Turning to CAATGTAC, the “PBM E-score” value was -0.256.

Take GGATCAAC: the “PBM E-score” value stood at 0.0773.

As to GATTTCCC, the “PBM E-score” value was 0.189.

With CGGCTAAC, the “PBM E-score” value came to 0.157.

On to ATTAGGAA, for which the “PBM E-score” value amounted to 0.00282.

For the sequence AACGTTAA, the “PBM E-score” value came to 0.0786.
